# According to PubChem BioAssay AID1508623 (National Center for Advancing Translational Sciences (NCATS), 2021):
# In all, about 48,000 compounds went through this assay and about 450 (0.94%) were called active. About 19% were inconclusive and are not listed. Calls come from the whole dose curve; as a rule, active = well fitted inhibition curve with a large enough effect; inconclusive = small, poorly fitted or top-dose-only effect; inactive = no such curve, though single readings can be large or run the other way. Some of the results follow.
# Assay: Primary qHTS for Identification of Small Molecule Inhibitors of Huntingtin Promoter Activity; note: nearly all actives have a fitted effect of over 50% in size
# Conditions: HEK293 HTT promoter firefly luciferase reporter (activity 0% = vehicle and -100% = no light), 24 h; series mostly up to 57.5 µM; activity change, negative = inhibition: at the top concentration
# Outline: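 Firefly luciferase readout (Dual-Glo, 10 min RT) after 24 h, 37 °C compound exposure (final up to 57.5 uM) of HEK293 reporter cells cultured 24 h beforehand; PTC124 at 50 uM final as control inhibitor; activity scaled vehicle 0%, zero RLU -100%.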
row,SMILES,"activity change, negative = inhibition"
1,COc1ccc(CNC(=O)Cn2ncn3nc(-c4cccs4)cc3c2=O)cc1,inactive: -1.76%
2,COc1ccc(N2CCN(S(=O)(=O)CCNC(=O)c3ccc(C(F)(F)F)cc3)CC2)cc1,inactive: -25.5%
3,CCCCCn1c(=O)[nH]c2cc(C(=O)NCc3ccc(OC)cc3)ccc2c1=O,inactive: -9.83%
4,CC(=O)NCCC(=O)N[C@@H](CCC(N)=O)C(=O)N[C@@H](CO)C(=O)N[C@@H](CCC(N)=O)C(=O)N[C@@H](CCC(N)=O)C(=O)N[C@H](C(=O)N[C@@H](Cc1ccccc1)C(=O)N[C@]1(C)CCCCCCC=CCCC[C@@](C)(C(=O)N[C@@H](CCC(N)=O)C(=O)N[C@@H](CC(N)=O)C(N)=O)NC(=O)[C@H](CC(C)C)NC(=O)[C@H](CC(C)C)NC(=O)[C@@H](CCCNC(=N)N)NC(=O)[C@H](Cc2c[nH]c3ccccc23)NC(=O)[C@H](CC(C)C)NC(=O)[C@H](CC(N)=O)NC1=O)[C@H](C)O,inactive: -19.2%
5,CCCC(=O)O[C@]1(C(=O)CCl)[C@@H](C)C[C@H]2[C@@H]3CCC4=CC(=O)C=C[C@]4(C)[C@@]3(F)C(=O)C[C@@]21C,inactive: -17%
6,CCOC(=O)c1ccc(NC(=O)CCS(=O)(=O)c2ccc3c(c2)oc(=O)n3C)cc1,inactive: -9.15%
7,CCCCN(CCCC)CCNC(=O)CN1C(=O)CSc2ccc(S(=O)(=O)N3CCCCC3)cc21,inactive: -13%
8,Cc1cccc(CN2C(=O)CC(c3ccc(Cl)cc3)c3c(C)nn(-c4nc(C)cc(C)n4)c32)c1 (stereo unspecified),inactive: -29.7%
9,COc1ccccc1N(CC(=O)Nc1ccccc1F)S(C)(=O)=O,inactive: -7.65% [at 11.5 µM]
10,CCOc1ccc(-n2nc3cc(C)c(NC(=O)CC)cc3n2)cc1,inactive: -13% [at 11.5 µM]
11,CCc1ccc(NC(=O)C(CC)n2nnc(C(=O)OC)c2C(=O)OC)cc1 (stereo unspecified),inactive: 28.8%
12,COc1ccc(C2NC(=O)c3c(sc4c3CCN(C)C4)N2)cc1O (stereo unspecified),inactive: 4.26%
13,CCN(CCCNC(=O)c1cc2c(=O)[nH]c3ccc(C)cc3c2s1)c1ccc(C)cc1,inactive: -18.8%
14,Cc1ccc(Cl)cc1N1CCN(S(=O)(=O)c2ccc3[nH]c4c(c3c2)CCCC4)CC1,inactive: -20%
15,CCOc1ccc2ccccc2c1C(=O)N[C@@H]1C(=O)N2[C@@H]1SC(C)(C)[C@@H]2C(=O)O,inactive: 11.6%
16,Cc1cccc(N2CCN(C(=O)C3CCN(S(=O)(=O)c4cn(C)cn4)CC3)CC2)c1C,inactive: -21.3%
17,CCCN1C(=O)c2ccccc2CC1(C)C(=O)NC1CCCCC1 (stereo unspecified),inactive: -24.2%
18,COc1ccccc1NC(=O)C1CCN(S(=O)(=O)c2ccc3c(c2)oc(=O)n3C)CC1,inactive: -13.4%
19,Cc1ccc(NC(=O)N2CCN(c3nnc(C)c4c(C)n(-c5ccccc5)nc34)CC2)cc1Cl,inactive: -5.5%
20,CN(C)C/C=C(/c1ccc(Br)cc1)c1cccnc1,inactive: 8.87%
21,O=C(NCc1ccc2c(c1)OCO2)c1ccc2c(c1)N(Cc1ccc(F)cc1)C(=O)c1ccccc1S2=O (stereo unspecified),inactive: -19.8%
22,Cc1ccc2nc(N(Cc3cccnc3)C(=O)c3ccc4c(c3)OCCO4)sc2c1,inactive: 1.23%
23,CCN(c1ccc(Cl)cc1)S(=O)(=O)c1nnc(NC(=O)C2CCCCC2)s1,inactive: -25.3%

row,SMILES,"activity change, negative = inhibition"
1,CCOCCc1nn2c(=O)cc(COC(=O)c3cccs3)nc2s1,inactive: 26.9%
2,Cc1cc(C)cc(-n2c(SCC(=O)NCC3CCCO3)nc3c([nH]c4ccccc43)c2=O)c1 (stereo unspecified),inactive: 25.1%
3,CCOc1ccc(-c2cc(NC(=O)c3ccc(C)cc3)c(C(=O)OC)s2)cc1,inactive: 12.9%
4,COc1ccc2c(c1)-c1nc(NC(=O)c3ccc(C)cc3)sc1CC2,inactive: -4.95%
5,Cn1cnc2c1c(=O)[nH]c(=O)n2C,inactive: 10.6%
6,CCCC(=O)C1=C(c2ccc(C)c(C)c2)N(C(=O)CCC)n2c(CC)nnc2S1,inactive: -28.6%
7,COc1ccc(-c2noc(-c3ccc(NCCc4ccccc4)c([N+](=O)[O-])c3)n2)cc1OC,inactive: -9.85%
8,O=C(Cn1ncc2c3ccccc3n(Cc3ccccc3)c2c1=O)Nc1ccccc1C(F)(F)F,inactive: 0%
9,CC(C)c1ccc(NS(=O)(=O)c2ccc3[nH]cc(C(=O)N4CCCC4)c(=O)c3c2)cc1,inactive: 7.55%
10,COc1cccc(CNC(=O)Cc2c(C)c3c(cc(C)c4c(C)coc43)oc2=O)c1,inactive: 0.742%
11,CCOc1ccc(NC(=O)Nc2ccc3snnc3c2)cc1,inactive: -8.01%
12,CC(=O)N1CCC2(CC1)OC(=O)C(C)=C2C(=O)NCc1ccc(Cl)cc1,inactive: -5.04%
13,CCc1ccc(CNC(=O)c2ccc3nc(C(C)C)oc3c2)cc1,inactive: -2.88%
14,Cc1nn(-c2nc(-c3ccc(F)cc3)cc(C(F)(F)F)n2)c(C)c1Cl,inactive: -28%
15,CC1=NN(c2ccccc2)C(=O)C1,inactive
16,COc1ccc(OC(C)c2nc3ccccc3[nH]2)cc1 (stereo unspecified),inactive: 14.7%
17,CCc1ccc(NC(=O)C(=O)NCC(c2cccnc2)N2CCN(C)CC2)cc1 (stereo unspecified),inactive: -15.1%
18,COC(=O)c1ccc(Cl)cc1NC(=O)N(C)CCc1c(C)nn(C)c1C,inactive: -15.8%
19,CCOc1ccc(NC(=O)Cn2cc(C(=O)c3ccc(C)c(C)c3)c(=O)c3cc(OC)c(OC)cc32)cc1,inactive: -13.7%
20,COc1cc(NC(=O)C(CC(C)C)NS(=O)(=O)c2ccc3c(c2)oc(=O)n3C)c(C(=O)O)cc1OC (stereo unspecified),inactive: -2.21%
21,O=c1cc(-c2ccc(F)cc2)nc(SCc2nc(-c3ccccc3Cl)no2)[nH]1,inactive: -0.233%
22,COc1cc(C(=O)Nc2ccc(NC(=O)c3ccc(Br)cc3)cc2)cc(OC)c1OC,inactive: -14.9% [at 11.5 µM]
23,COc1ccc(CCn2c3c(c(=O)[nH]c2=O)C(NC(=O)c2ccccc2OC)(C(F)(F)F)C(=O)N3)cc1OC (stereo unspecified),inactive: -11.2%

row,SMILES,"activity change, negative = inhibition"
1,Cc1oc(-c2cccc(Cl)c2)nc1CSc1nc2ncccc2[nH]1,inactive: -10.3%
2,O=C(COc1ccccc1Cl)Nc1ccc(Cl)c(-c2nc3ccccc3o2)c1,inactive: -15.5%
3,Cc1cccc(N2CCN(C(=O)c3cc4c(=O)n(C)c5ccccc5c4s3)CC2)c1C,inactive: -2.96%
4,O=C(CCS(=O)(=O)c1cc2c3c(c1)CCN3C(=O)CC2)NCc1ccc(Cl)cc1,inactive: -32.1%
5,COc1ccc(/C=C/c2nc(C#N)c(NC3CCCCC3)o2)cc1OC,inactive: 2.37%
6,COC(=O)CSc1ccc2nnc(CCNS(=O)(=O)c3ccc(C)cc3)n2n1,inactive: -0.0981%
7,COc1ccccc1CNC(=O)Cn1c(-c2cccs2)cc2cc(F)ccc21,inactive: -21.6%
8,CCOc1ccccc1NC(=O)Cn1nc2c3cc(F)ccc3n(Cc3cccc(C)c3)cc-2c1=O,inactive: -8.92%
9,COc1cccc(NC(=O)CCc2nc(-c3cc(OC)c(OC)c(OC)c3)no2)c1,inactive: -26%
10,COc1ccc(CCNC(=O)c2cc(-c3ccc(Cl)cc3)on2)cc1OC,inactive: 19.3%
11,CCOC(=O)c1ccc(NC(=O)c2cc3c(=O)n(C)c4ccccc4c3n2C)cc1,inactive: -6.67%
12,CCCCCNC(=O)N1CCC(CN(Cc2ccc(Cl)cc2)Cc2ccc([N+](=O)[O-])s2)C1 (stereo unspecified),inactive: -8.93%
13,Cc1ccc(C)c(NC(=O)C(=O)NCCc2csc(-c3cccc(F)c3)n2)c1,inactive: -10.8%
14,Cn1c(=O)cc(SCC(=O)Nc2cccc(C#N)c2)c2ccc(Cl)cc21,inactive: -14.3%
15,Cc1nc2ccccn2c(=O)c1NC(=O)c1ccccc1Cl,inactive: 32.4%
16,COc1ccc(N2CCN(C(=O)Cc3noc4ccc(C)cc34)CC2)cc1,inactive: -16.6%
17,Cc1ccc(CN2CCc3nc(N4CCN(C)CC4)ncc3C2)cc1,inactive: -21.2%
18,COc1ccc(Nc2nnc(-c3ccc(C)c(S(=O)(=O)N4CCN(C)CC4)c3)c3ccccc23)cc1,inactive: -0.678%
19,Cc1nc2sccn2c(=O)c1S(=O)(=O)NCc1ccccc1,inactive: -9.26%
20,COC(=O)c1ccc(OC)c(CN2CCCN(Cc3ccc(C)cc3)S2(=O)=O)c1,inactive: -5.73%
21,COc1ccc(Cl)cc1C(=O)NCC(c1ccc(N(C)C)cc1)N1CCOCC1 (stereo unspecified),inactive: -6.2%
22,Cc1cccc(C)c1OCC(=O)N(Cc1ccc(Cl)cc1)CC1CCCO1 (stereo unspecified),inactive: -14.2%
23,O=C(O)CCNC(=O)c1ccccc1,inactive: 3.35%

row,SMILES,"activity change, negative = inhibition"
1,Cn1c(=O)c2c(nc(NCCc3ccccc3)n2Cc2ccc(Cl)c(Cl)c2)n(C)c1=O,inactive: -8.05%
2,CC(C)c1nn2c(=O)cc(COC(=O)c3ccccc3NC(=O)c3cccs3)nc2s1,inactive: -30%
3,CCCN(Cc1cccs1)C(=O)Nc1ccccc1C,inactive: -3.32%
4,CC1CCCN(c2csc3ccccc3c2=O)C1 (stereo unspecified),inactive: 67.2%
5,COc1ccc(S(=O)(=O)NCCc2cn3ccsc3n2)cc1OC,inactive: 1.27%
6,CCOc1ccc(N(Cc2cc3cc(C)ccc3[nH]c2=O)C(=O)c2cccc(Cl)c2)cc1,inactive: -1.41%
7,O=C(N[C@H](CO)[C@H](O)c1ccc([N+](=O)[O-])cc1)C(Cl)Cl,inactive
8,Cc1ccc(C)c(CN2CCC(CNC(=O)Cn3ncc4c([nH]c5ccccc54)c3=O)CC2)c1,inactive: -2.02%
9,O=C(NCCCN1CCOCC1)c1ccc2c(c1)N(Cc1ccccc1)C(=O)c1ccccc1S2,inactive: -21.5%
10,NC/C=C/C(=O)O,inactive: 10.5%
11,CCOc1ccc(NC(=O)NC(C)c2c(-n3cccc3)sc(C)c2C)cc1 (stereo unspecified),inactive: -26.5%
12,Cc1cccc(OCCCCn2nnc3sc4c(c3c2=O)CCC(C)C4)c1 (stereo unspecified),inactive: 12.4%
13,O=C(Cn1nc(N2CCN(c3ccccc3)CC2)ccc1=O)NCc1cccc(Cl)c1,inactive: -4.28%
14,CCOC(=O)CSc1nc2sc3c(c2c(=O)n1Cc1ccccc1)CC(C)CC3 (stereo unspecified),inactive: -1.55%
15,CCOc1ccccc1CNC(=O)CN1C(=O)CCCc2ccccc21,inactive: 3.16%
16,O=C(COc1ccccc1)Nc1ccc(C(=O)OCc2cc(=O)n3nc(C4CC4)sc3n2)cc1,inactive: -9.29%
17,Cc1nc2nc(SCC(=O)NCc3ccccc3)nn2c(C)c1Cc1ccccc1Cl,inactive: -27.6%
18,COc1ccc(-n2c(/C=C/c3cc(OC)c(OC)cc3OC)nc3cc4ccccc4cc3c2=O)cc1Cl,inactive: -6%
19,Cc1ccc(OCCSc2nc3ccc(NC(=O)COc4ccc(F)cc4)cc3s2)cc1,inactive: -0.168%
20,CCN(CC)CCNC(=O)C1CCN(S(=O)(=O)c2c(C)noc2/C=C/c2ccccc2F)CC1,inactive: -19.7%
21,O=C(Cc1cccs1)NC1CC(=O)N(c2ccccc2)C1 (stereo unspecified),inactive: -12.9%
22,CCc1cccc(C)c1NC(=O)CN1CCCN(Cc2ccc(C)cc2)S1(=O)=O,inactive: -23.8%
